Patent US10188733B2 (priority 2010, dated 2019)
Where two headings read alike, the source gives them in different places.

Test system: CD169+ lymph node macrophages

Row | Substance | depletion of CD169+ lymph node macrophages (mouse, in vivo) | depletion of CD169+ lymph node macrophages (carrageenan 2 mg every other day from day -5, or dextran sulfate 1 mg single dose day -5, footpad (FIG. 9))
1 | dextran sulfate | local depletion | –
2 | carrageenan | – | local depletion
